Reference: PubChem BioAssay AID1963834 (Molecular Pharmacology Branch, DTP, NCI, 2024)
The source holds more than one record for some entries. They are shown here; other results are not. There may be further records. The records of an entry are repeated measurements (runs, samples, wells, individuals or studies). Additions like (4×) stand for listed records that agree.

Test system: 873145-292-R-J1-PDC complex spheroid viability
Assay: Anticancer human tumor 873145-292-R-J1-PDC patient-derived renal clear cell carcinoma cell line growth inhibition [POLQ]
Conditions: stronger effect = lower value
Description: Multicellular complex tumor spheroid response to Polymerase (POL) inhibitors (novobiocin, ART-558, RP6685) in combination with a variety of drugs and investigational agents in selected tumor cell lines
The POL inhibitors (novobiocin, ART-558, and RP6685) were evaluated both individually and in combination with standard of care and investigational anticancer small molecules within a complex spheroid model of solid tumors. . Complex spheroids include a stromal component modeled by human endothelial cells (HUVEC) and fibroblasts modeled by human mesenchymal stem cells (MSCs). The concentration ranges selected for each drug and investigational agent were based upon clinically achievable concentrations if the clinical Cmax of the agent was known.
Compounds. […] If the clinical Cmax for an agent had not been determined, the highest concentration tested was 10 microM, except for SN-38, which was tested at a high concentration of 1 microM. […]
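Also: luminescence signal used as surrogate for viable cell content; spheroids exposed to compounds for 7 days before viability readout; 100% = DMSO vehicle control viability.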

Row | Compound | viability, T/C (compound alone 0.1 µM) | viability, T/C (compound alone 0.0316 µM)
1 | COC1C(OC(N)=O)C(O)C(Oc2ccc3c(O)c(NC(=O)c4ccc(O)c(CC=C(C)C)c4)c(=O)oc3c2C)OC1(C)C (configuration not stated) | 100, 94.4, 98.6, 91.8, 87.9, 103 (2×), 97.6, 108, 92.5, 114, 104% | –
2 | Nc1ccc(C#CCN(C(=O)Cc2ncc(C(F)(F)F)cc2C(F)(F)F)c2ccc(F)cc2)nn1 | – | 88.2, 96.7, 86.8, 99.6, 93.8, 93, 92.2, 99.2, 91.5, 96.1, 86.3, 78.4, 71.4%
